Laboratory results reported in PubChem BioAssay AID1347120 (National Center for Advancing Translational Sciences (NCATS), 2019).
About 930 (0.24%) of roughly 390,000 compounds were called active. The inconclusive results got no clear call from the source; some entries with a clear call stand among them for comparison. Calls come from the whole dose curve; as a rule, active = well fitted activation curve with a large enough effect; inconclusive = small, poorly fitted or top-dose-only effect; inactive = no such curve, though single readings can be large or run the other way. Potencies of inconclusive entries are doubtful fits and often do not repeat.

Test: qHTS for Suppressors of FUS Proteinopathy: Primary screen using FUS-linked yeast assay; note: nearly all actives have a fitted effect of over 55% in size;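 for growth rescue (activation): plate controls were DMSO vehicle for no effect and reference control for full effect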
Conditions: S. cerevisiae FUS-expressing, OD600, 24 h; Potency: growth rescue; growth rescue (activation): at 76.6 µM (top of the series)
Summary of the method: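 Absorbance at 600 nm, taken 24hr after compound addition, measured rescue of FUS-yeast growth at 30C. Induction used 2% galactose with seeding at OD 0.005. Controls: CP55940 from 92uM final, DMSO only.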
Potency is the fitted concentration of half-maximal effect; tags give direction and shape of the fitted curve.

For Cc1cccc(N2CCN(C(=O)COc3cc(=O)n(C)c4ccccc34)CC2)c1C, which Potency is on record?
Its Potency is inconclusive: 50.1 µM [activator, single point].

With Cc1cc2oc(=O)c(CC(=O)O)c(C)c2c2occ(-c3ccc(F)cc3)c12 as the compound, how does the Potency read?
The Potency was “inactive”.

Which Potency does the source give for COCc1cn(-c2ccc3c(c2)[C@@]2(CC(=O)N(C)C2c2ccccc2)C(=O)N3CC(C)C)nn1 (some centres not stated) here?
The Potency was “inactive”.

For COc1ccc(OC)c(C2C(C#N)=C(N)Oc3cc(N)ccc32)c1 (configuration not stated), which Potency is on record?
The Potency was inconclusive: 11.2 µM [activator, partial curve, poor fit].

For C/C(=N\Nc1cc(C)nc(-c2ccccc2O)n1)c1ccccc1, which Potency is on record?
Its Potency is “inactive”.

With C/C(N)=C(/C#N)C(=O)CSc1nc2ccccc2c(=O)n1Cc1ccc(F)cc1 as the compound, how does the Potency read?
The Potency was “inactive”.

With COc1ccc(-n2c(=O)c3c4c(sc3n(Cc3cc(C)ccc3C)c2=O)CN(C(C)=O)CC4)c(OC)c1 as the compound, how does the Potency read?
Its Potency is inconclusive: 25.1 µM [activator, partial curve, poor fit].

For Cc1c(C#N)c2n(c1C)CCCC(=O)N2, which Potency is on record?
Its Potency is “inactive”.

Which growth rescue (activation) does the source give for Cc1ccc(OCc2nnc(SCC(=O)Nc3sc(C)c(C)c3C#N)n2C)cc1 here?
The growth rescue (activation) was inconclusive: 92.4% [activator].

With COc1ccc([N+](=O)[O-])cc1N/C(=N/S(=O)(=O)c1ccccc1)c1ccccc1 as the compound, how does the Potency read?
Its Potency is inconclusive: 25.1 µM [activator, partial curve, poor fit].

For Cc1ccc(-c2nc3ccc(Br)cn3c2Cc2cccc(Cl)c2)cc1, which Potency is on record?
Its Potency is “inactive”.

For CCOC(=O)[C@@H]1[C@H]2COc3ccccc3[C@H]2N2C(=O)N(c3ccc(Cl)cc3)C(=O)[C@]12C, which Potency is on record?
The Potency was inconclusive: 25.1 µM [activator, single point].

For COC(=O)N/N=C/c1ccc(-c2ccccc2Cl)o1, which Potency is on record?
The Potency was “inactive”.

For Cc1nnc(SCc2ccc(Cl)cc2)c2cc3occc3n12, which Potency is on record?
Its Potency is inconclusive: 50.1 µM [activator, single point].

With O=C(COc1ccccc1)Nc1cc(Cl)ccc1Cl as the compound, how does the Potency read?
The Potency was inconclusive: 0.891 µM [activator, full curve, poor fit].

With N#Cc1ccc(Nc2nc(-c3ccccc3)cs2)cc1 as the compound, how does the Potency read?
Its Potency is “inactive”.

With COc1ccc(OCC(=O)Nc2ccc3c(c2)nc2n3CCSC2)cc1 as the compound, how does the Potency read?
Its Potency is inconclusive: 25.1 µM [activator, single point].

Which Potency does the source give for Cc1cc(S(=O)(=O)Nc2ccc(-c3ccc(N4CCCCC4)nn3)cc2)c(C)cc1Cl here?
The Potency was inconclusive: 39.8 µM [activator, partial curve, poor fit].

Which Potency does the source give for CCOc1ccc(NC(=O)CSc2nnc(-c3ccccc3Cl)n2Cc2ccco2)cc1 here?
Its Potency is inconclusive: 28.2 µM [activator, single point].

Which Potency does the source give for Cc1cc(C)c2sc(N(CCCN(C)C)C(=O)c3ccc(S(=O)(=O)N(C)C4CCCCC4)cc3)nc2c1 here?
The Potency was inconclusive: 35.5 µM [activator, single point].

For COc1ccccc1NS(=O)(=O)c1ccc(Cl)c(NC(=S)NC(=O)C2CCCC2)c1, which Potency is on record?
The Potency was inconclusive: 25.1 µM [activator, partial curve].

For O=C(/C=C/Nc1ccc(Nc2ccccc2)cc1)c1cccs1, which Potency is on record?
The Potency was inconclusive: 11.2 µM [activator, partial curve].

Which Potency does the source give for CCCn1cc(S(=O)(=O)c2cc(C)ccc2C)c(=O)c2cc(F)c(N3CCOCC3)cc21 here?
Its Potency is inconclusive: 50.1 µM [activator, single point].

Which Potency does the source give for COCc1nnc(NS(=O)(=O)c2ccc(Br)cc2)s1 here?
The Potency was inconclusive: 3.55 µM [activator, partial curve, poor fit].

Which Potency does the source give for CCOc1ccc(N2CC(C(=O)N3CCc4ccccc4C3)CC2=O)cc1 (configuration not stated) here?
The Potency was inconclusive: 3.16 µM [activator, full curve].

Which Potency does the source give for C[C@@H]1CN([C@H](C)CO)C(=O)c2cc(NC(=O)Cc3cn(C)c4ccccc34)ccc2O[C@H]1CN(C)C(=O)Nc1ccc2c(c1)OCO2 here?
Its Potency is active: 31.6 µM.

With COC(=O)[C@]12C[C@H](CC(=O)NCc3cccs3)C(=O)N(Cc3cccc4ccccc34)C1=C[C@H](C1CCCC1)O[C@@H]2C as the compound, how does the Potency read?
The Potency was inconclusive: 8.91 µM [activator, partial curve].

Which Potency does the source give for COC(=O)Cc1cc(=O)n(-c2nc3ccccc3[nH]2)[nH]1 here?
Its Potency is inconclusive: 0.891 µM [activator, full curve, poor fit].

For Cc1ccc(C2CC(c3ccccc3)=NN2c2ccc(S(N)(=O)=O)cc2)cc1 (configuration not stated), which Potency is on record?
The Potency was inconclusive: 35.5 µM [activator, single point].

With O=C(CC(c1ccccc1)c1ccccc1O)NCc1ccccc1Cl (configuration not stated) as the compound, how does the Potency read?
Its Potency is “inactive”.

With O=C(CCCN1C(=O)/C(=C\c2cccs2)SC1=S)NNC(=O)c1cccnc1 as the compound, how does the Potency read?
Its Potency is inconclusive: 7.94 µM [activator, partial curve, poor fit].

For CCc1nc2ccccc2c(C(=O)OCC(=O)Nc2cccc(S(=O)(=O)N3CCOCC3)c2)c1C, which Potency is on record?
Its Potency is inconclusive: 31.6 µM [activator, partial curve, poor fit].

Which Potency does the source give for CN(C(=O)c1cccc(NC(=O)Cc2ccc(NC(=O)C3CCCN(S(=O)(=O)c4cccc([N+](=O)[O-])c4)C3)cc2)c1)C1CCCCC1 (configuration not stated) here?
Its Potency is inconclusive: 28.2 µM [activator, single point].

Which Potency does the source give for CC(C)Oc1ccc(S(=O)(=O)N2CCOCC2)cc1NC(=O)CN1C(=O)c2ccccc2C1=O here?
Its Potency is inconclusive: 50.1 µM [activator, single point].

For Cn1c(N)c(N=O)c(=O)n(C)c1=S, which Potency is on record?
Its Potency is “inactive”.

For O=C(COc1ccc(F)cc1)Nc1cc(S(=O)(=O)N2CCCCC2)ccc1N1CCCCC1, which Potency is on record?
Its Potency is inconclusive: 35.5 µM [activator, single point].

Which Potency does the source give for Cc1ccc(C(=O)COC(=O)c2cc(=O)[nH]c3ccccc23)cc1 here?
Its Potency is inconclusive: 12.6 µM [activator, partial curve, poor fit].

Which Potency does the source give for COC(=O)[C@]12C[C@H](CC(=O)NCC3CCCCC3)C(=O)N(Cc3cccc4ccccc34)C1=C[C@H](COCc1ccccc1)O[C@@H]2C here?
The Potency was “inactive”.

With COc1cccc(CNC(=O)Cc2ccc(NC(=O)N3CCCCc4ccccc43)cc2)c1OC as the compound, how does the Potency read?
The Potency was inconclusive: 20 µM [activator, partial curve, poor fit].

With Cc1cccc(-c2noc(CCC(=O)N3CCN(c4cc(C)ccc4C)CC3)n2)c1 as the compound, how does the Potency read?
The Potency was “inactive”.

With O=C(N/N=C/c1cc(Br)c(Br)o1)c1cc2ccccc2o1 as the compound, how does the Potency read?
The Potency was “inactive”.

Which Potency does the source give for COc1ccc(Nc2ncc(C(=O)N3CCN(c4cccc(Cl)c4)CC3)c3ccccc23)cc1 here?
The Potency was inconclusive: 28.2 µM [activator, single point].

With COc1cc(/C=N/NC(=O)COc2c(C)cc([N+](=O)[O-])cc2C)ccc1OC(=O)c1ccccc1 as the compound, how does the Potency read?
The Potency was inconclusive: 31.6 µM [activator, partial curve, poor fit].

For CCCCc1ccc(N=N/C(C(=O)Nc2cc(OC)c(NC(C)=O)cc2OC)=C(/C)O)cc1, which Potency is on record?
Its Potency is inconclusive: 11.2 µM [activator, partial curve, poor fit].

With COc1ccc(CNc2oc(-c3cccc4ccccc34)nc2P(=O)(OC)OC)cc1 as the compound, how does the Potency read?
Its Potency is inconclusive: 25.1 µM [activator, partial curve].

For COC(=O)c1ccc(CSc2ncnc3c2sc2nc(N4CCOCC4)c4c(c23)CCCC4)o1, which Potency is on record?
Its Potency is inconclusive: 28.2 µM [activator, partial curve, poor fit].

Which Potency does the source give for Cc1ccc(C(=O)CC2(O)C(=O)N(CCc3ccccc3)c3ccc(Cl)cc32)cc1 (configuration not stated) here?
Its Potency is inconclusive: 50.1 µM [activator, single point].

For COc1ccc(C2C(O)C(c3c[nH]c4ccccc34)=NN2C(=O)CCl)cc1 (configuration not stated), which Potency is on record?
Its Potency is inconclusive: 31.6 µM [activator, single point].

Which Potency does the source give for O=C(CCCc1c[nH]c2ccccc12)NCCc1c[nH]c2ccccc12 here?
Its Potency is inconclusive: 28.2 µM [activator, partial curve, poor fit].

With COC(=O)c1ccccc1NC(=O)/C=N/O as the compound, how does the Potency read?
Its Potency is “inactive”.

Which Potency does the source give for COc1ccc(S(=O)(=O)N2CCOC2CNC(=O)C(=O)NCCc2c[nH]c3ccccc23)cc1C (configuration not stated) here?
Its Potency is inconclusive: 35.5 µM [activator, partial curve, poor fit].

With O=c1ccn([C@@H]2O[C@H](CNCc3ccccc3OCc3ccc(Cl)cc3Cl)[C@@H](O)[C@H]2O)c(=O)[nH]1 as the compound, how does the Potency read?
The Potency was “inactive”.

For O=C(c1cncs1)N1CCCC(CNS(=O)(=O)c2cccs2)C1 (configuration not stated), which Potency is on record?
The Potency was “inactive”.

Which Potency does the source give for COCCCNC(=O)c1cc(C(=O)c2ccccc2Br)c[nH]1 here?
Its Potency is inconclusive: 7.08 µM [activator, partial curve, poor fit].

With Cc1cccc(N2CCN(C3=NC(=O)C(=C4CCCCC4)S3)CC2)c1 as the compound, how does the Potency read?
The Potency was “inactive”.

For Cc1ccc(-n2c(SCC(=O)Nc3ccccc3-c3ccccc3)nnc2-c2cccs2)cc1, which Potency is on record?
The Potency was inconclusive: 10 µM [activator, partial curve].

For COc1ccc(CNC(=O)C[C@H]2C[C@H](C(=O)N3CCCCC3)[C@@]3(C)c4[nH]c5ccc(Cl)cc5c4CCN3C2=O)cc1OC, which Potency is on record?
Its Potency is inconclusive: 11.2 µM [activator, partial curve].

Which Potency does the source give for O=C(COc1ccc2ccccc2c1)N1c2ccccc2Sc2ccccc21 here?
The Potency was inconclusive: 20 µM [activator, partial curve, poor fit].

Which Potency does the source give for O=C(NCCN1C(=O)S/C(=C\c2cccnc2)C1=O)C1=NN(c2ccccc2)C(=O)CC1 here?
Its Potency is inconclusive: 39.8 µM [activator, partial curve, poor fit].

With CCc1nc2c(OCc3ccc(OC(F)F)cc3)cccn2c1N(C)C(=O)c1cccs1 as the compound, how does the Potency read?
The Potency was “inactive”.

For Cc1cccc(-n2c3nc(=O)[nH]c(=O)c-3cc3c(Cl)cccc32)c1C, which Potency is on record?
The Potency was “inactive”.

For CCOC(=O)CCCCCC(=O)Nc1ccc2c(c1)C(=O)N([C@@H](C)CO)C[C@H](C)[C@H](CN(C)C(=O)Nc1ccc(F)cc1)OCCCC[C@H](C)O2, which Potency is on record?
Its Potency is active: 22.4 µM.
